Laboratory results as given in publication PMC6919601, “Identification of Plasmodium dipeptidyl aminopeptidase allosteric inhibitors by high throughput screening” (PLoS ONE, 2019).
Where “and” joins values, the source holds several entries; their conditions need not be identical. Equal values may be shown once. Among all 110,000 compounds or so, about 230 (0.21%) showed an effect of 50% or more. The list shows a part of the results.

molecular target: DPAP1 (Plasmodium falciparum, UniProt Q8IIJ9); experiment: primary screen, percent inhibition; read by cleavage of a fluorogenic dipeptide substrate; higher = more effect of the substance; design: species or system P. falciparum D10 trophozoite lysates; single well
Sequence (Q8IIJ9 whole entry, looked up): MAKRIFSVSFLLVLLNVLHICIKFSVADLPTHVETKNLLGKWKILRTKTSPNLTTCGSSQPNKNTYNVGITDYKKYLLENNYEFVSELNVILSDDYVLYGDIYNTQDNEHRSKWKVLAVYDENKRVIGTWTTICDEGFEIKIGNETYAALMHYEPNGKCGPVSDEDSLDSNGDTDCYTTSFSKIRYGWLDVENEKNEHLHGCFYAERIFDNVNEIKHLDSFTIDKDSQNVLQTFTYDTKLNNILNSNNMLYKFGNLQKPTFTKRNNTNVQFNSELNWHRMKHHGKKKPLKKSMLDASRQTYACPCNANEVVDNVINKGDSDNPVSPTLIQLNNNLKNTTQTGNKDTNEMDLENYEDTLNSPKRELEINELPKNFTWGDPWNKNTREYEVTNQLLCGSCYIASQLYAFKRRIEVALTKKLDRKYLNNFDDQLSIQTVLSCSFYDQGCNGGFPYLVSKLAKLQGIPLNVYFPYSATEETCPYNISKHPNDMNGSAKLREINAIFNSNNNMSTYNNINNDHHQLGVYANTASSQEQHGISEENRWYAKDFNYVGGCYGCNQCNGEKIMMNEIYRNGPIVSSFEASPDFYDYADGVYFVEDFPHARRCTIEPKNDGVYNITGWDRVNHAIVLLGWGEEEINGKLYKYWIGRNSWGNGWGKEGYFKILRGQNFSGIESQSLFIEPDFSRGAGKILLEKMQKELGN
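Also: 30 min substrate incubation versus DMSO and 10 µM JCP410 controls.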

Compound	% Inhibition @ 10 uM
CC(C)CCNC(=O)c1ccc(-c2ccccc2)s1	-0.447%
Cc1cc(C(F)F)n2nc(C(=O)Nc3ccc(S(=O)(=O)N4CCCCCC4)cc3)nc2n1	-0.425%
CC(C)Sc1nc(N2CCCCC2)c2c(c1C#N)CCCC2	-4.7%
Cc1cccc(Cn2c(Br)nc3c2c(=O)n(C)c(=O)n3C)c1	-2.32%
Cc1cc(C)c2oc(C(=O)N3CCN(Cc4ccccc4)CC3)cc(=O)c2c1	1.9%
CC(C)NC(=O)C1CCN(c2nn3cc(-c4ccc(F)cc4)nc3s2)CC1	6.04%
CC1=C(C#N)C(c2cccc(Cl)c2Cl)C2=C(O)CC(c3ccccc3)CC2=N1 (stereo not drawn)	-2.2%
Cc1ccc(S(=O)(=O)Nc2cccc(C(=O)NC(C)(C)CO)c2)cc1	-3.58%
O=C(NC1CCCCC1)N(Cc1ccccc1)Cc1ccco1	-1.33%
O=S(=O)(Nc1ccccc1)c1cccc(S(=O)(=O)c2ccc(Cl)cc2)c1	3.01%
COc1ccccc1C(=O)N(Cc1ccc(C)o1)C1CCS(=O)(=O)C1 (stereo not drawn)	1.99%
O=C(CCCC(=O)c1ccccc1)NCCc1ccccc1	-8.86%
CCOC(=O)C1=C(C)NC(=O)NC1c1ccc(OC)c(Cn2nnc3ccccc32)c1 (stereo not drawn)	-0.169%
COc1cc(C2CC(=O)NC(SCC(=O)Nc3ccc(Br)cc3)=C2C#N)ccc1O (stereo not drawn)	-5.34%
COCCN1C=C(C(=O)OC)C(c2ccsc2)C(C(=O)OC)=C1	-5.01%
CCc1ccccc1NC(=O)CN(c1ccc(OC)cc1OC)S(C)(=O)=O	-3.25%
O=C(NCc1ccc(F)cc1)c1cnc(N2CCCC2)nc1	0.44%
CCOc1cccc2c1Oc1nc(-c3ccccc3)nc(SCC(N)=O)c1C2	9.33%
CCN(CC)c1nc(N)nc(Nc2ccc3cc(-c4ccccc4)c(=O)oc3c2)n1	2.13%
COc1ccc(NC2=CC(c3ccc(OC)c(OC)c3)N(c3ccc(OC)cc3)C2=O)cc1 (stereo not drawn)	7.98%
O=C(O)c1cccc2c1C(=O)c1cc(Cl)ccc1-2	-10%
CC(C)(C)C1CCC(N2CCN(c3ccccc3F)CC2)CC1 (stereo not drawn)	-5.44%
COc1ccc(C(=O)Nc2nc3n(n2)C(c2ccccc2)CC(=O)N3)cc1 (stereo not drawn)	1.31%
CCN1C(=O)C(CC(=O)Nc2cc(C)ccc2C)S/C1=N\c1cccc(OC)c1 (stereo not drawn)	-1.26%
O=C(NCCc1ccccc1)c1ccc2c(O)c(S(=O)(=O)c3ccc(Cl)cc3)c(O)nc2c1	5.55%

Compound	% Inhibition @ 10 uM
Cc1ccc(OCC(=O)Nc2cccc(NC(=O)c3ccccc3)c2)cc1C	-8.49%
CCCCNC(=O)CN1N=C(c2ccccc2)CCC1=O	3.79%
Cc1ccc(C)c(Cn2c3ccccc3c3cnn(CC(=O)NCc4ccccn4)c(=O)c32)c1	3.4%
Cc1ccc(C(=O)Nc2cc3c(oc2=O)CC(C)(C)CC3=O)cc1	0.221%
CCN1CCN(c2c(C(=O)c3ccccc3)cnc3cc4c(cc23)OCCO4)CC1	2.98%
O=C(NCCc1nc(-c2ccccc2)cs1)c1ccccc1	1.89%
COc1ccc(-n2nc3c(c2NC(=O)c2ccc(S(=O)(=O)N(C)C)cc2)CS(=O)(=O)C3)cc1	6.18%
CCOc1ccc(CNC(=O)C2CCC(=O)N2C2CCCC2)cc1OC (stereo not drawn)	2.18%
O=C(NCCc1ccccc1)c1cccnn1	-1.05%
CCCCNCC(O)COc1ccc(Cl)c(C)c1 (stereo not drawn)	2.6%
Cn1c(=O)c(C(=O)Nc2nc(-c3ccc(Cl)cc3)cs2)c(O)c2ccccc21	-0.622%
Cc1ccc(C(=O)O/N=C(\N)Cc2cccs2)c(Cl)c1	5.17%
O=C(CSc1nc2c(sc3ccccc32)c(=O)n1CC1CCCO1)NCc1ccccc1 (stereo not drawn)	6.94%
CCCCC(=O)c1c(C)cc(C)nc1O	0.177%
Cc1cc(O)nc(SCc2nc(-c3cccs3)no2)n1	3.93%
CC[C@H](C)[C@H](NC(=O)Cc1ccncc1)C(=O)N[C@@H](CCc1ccccc1)C(=O)CO	-4.17%
CCOC(=O)c1c(C)[nH]c(C)c1S(=O)(=O)NC1CCN(C(=O)OCC)CC1	-0.342%
Cc1ccccc1CS(=O)(=O)CCC(=O)O	-2.14%
Cc1cccnc1NC(=O)C(C)N1C(=O)c2ccccc2C1=O (stereo not drawn)	3.04%
CCOC(=O)C1=C(C)OC(N)=C(C#N)C1c1c(Cl)cccc1Cl (stereo not drawn)	19.2%
COc1cccc(-c2nc(SCc3ccc(Br)cc3)n3[nH]c(=O)cc3n2)c1	-2.85%
COc1ccc(-c2cc(C(F)(F)F)n3ncc(C(=O)NCc4ccco4)c3n2)cc1OC	2.94%
CCOC(=O)c1cnc2nc(NC(=O)c3ccc(F)cc3)nn2c1O	-4.91%
OCC1CCCN(Cc2ccc(F)cc2F)C1 (stereo not drawn)	-4.15%
COc1c(C(=O)N[C@@H](CC(C)C)C(=O)NCC#N)csc1-c1ccccc1C	3.19%

Compound	% Inhibition @ 10 uM
Cc1cc(=O)n2nc(N3CCCC(C(=O)NC(C)CCc4ccccc4)C3)sc2n1 (stereo not drawn)	-3.79%
Cc1cccc(CCNC(=O)c2cc(S(=O)(=O)N3CCCC3)cn2C)c1	1.1%
COc1ccc(N2CCN(S(=O)(=O)c3ccc(Br)s3)CC2)cc1	-0.469%
COc1ccc(S(=O)(=O)Cc2ccc(C(=O)NCCc3cc(OC)ccc3OC)o2)cc1	0.238%
O=C(O)c1cc(Cl)c(Cl)cc1C(=O)N1CCCCC1	-2.54%
CN(CCNC(=O)C1CCN(c2ncnc3c2nc2n3CCCCC2)CC1)C1CCCCC1	2.82%
O=C(O)c1ccc(CN2CCCCCCC2)cc1	-1.98%
C=CCC1(O)C(=O)N2C(=C1C(=O)N1CCCCC1)c1ccccc1CC2(C)C (stereo not drawn)	2.43%
CCOc1ccc(/C=C2/SC(=O)N(CN3CCCCC3)C2=O)cc1OCC	5.79%
Oc1nc(/C=C/c2ccc3c(c2)OCO3)cc(C(F)(F)F)n1	-0.414% and -6.7%
Cc1ccccc1C(=O)N1CCC2(CC1)N=C(c1ccc(C(C)(C)C)cc1)C(=O)N2	4.17%
Cc1ccc(N2CC(C(=O)Nc3cc(C(F)(F)F)ccc3Cl)CC2=O)cc1 (stereo not drawn)	10.5%
N#Cc1c(N)sc2c1CCN(Cc1ccccc1)C2	2.7%
CCOc1ccc(C(=O)Nc2c(C)cccc2C)cc1	-2.17%
CC(C)(O)C#Cc1ccc(C(=O)N2CCN(c3ccccc3F)CC2)cc1	3.06%
Cc1sc2c(c1C)CN(C1CC(C)(C)NC(C)(C)C1)CN2C(=O)c1ccco1	14.3%
Cc1cccc(N(CC(=O)NCc2ccco2)S(=O)(=O)c2ccccc2)c1C	-0.473%
COc1cc2ncc(S(=O)(=O)c3ccc(Cl)cc3)c(N3CCC(C(N)=O)CC3)c2cc1OC	-0.405%
COc1ccc(CCNS(=O)(=O)c2csc(C(N)=O)c2)cc1OC	2.18%
Cc1cccc(OCC(=O)Nc2nc[nH]n2)c1C	-0.142%
O=C(O)/C=C/C(=O)NCCc1ccccc1	3.06% and -5.64%
COc1ccc(OC)c(-c2c(C#N)c(N)nc(OC)c2C#N)c1	-0.999%
Cc1n[nH]c(C)c1-c1c(C)n[nH]c1C	-1.76%
COc1ccc(C(=O)Nc2cnn(Cc3ccc(Cl)cc3Cl)c2)cc1OC	0.145%
O=C(Cc1cccs1)NCc1ccccc1Br	0.0198%

Compound	% Inhibition @ 10 uM
Cc1ccccc1CNC(=O)Cn1ncc2ccc(Cl)cc21	5.39%
Cc1ccc(NC(=O)c2ccc(OC(C)C)cc2)cc1	-3.71%
COc1cc(CNCCSc2nnnn2C)ccc1OCC(N)=O	0.00706%
CCn1cc(C(=O)O)c(=O)c2c(N)c(F)c(N3CCNCC3)c(F)c21	3.54%
CCC1CCCCN1Cc1cccc(Oc2ccccc2)c1 (stereo not drawn)	3.24%
O=C(NCc1ccccn1)c1ccccc1Br	-3.94%
O=c1cnnc2sc(SCc3cccc(Cl)c3)nn12	1%
COc1cccc(C/N=c2/c(-c3ccc(C(C)C)cc3)c(O)c2=O)c1	-2.87%
COc1ccc(-n2nnc(-c3nsc(NC(=O)c4ccccc4C)n3)c2C)cc1OC	6.57%
CCOC(=O)c1c(-c2cccc(OC)c2)csc1N	-4.24%
CCn1c(=O)n(Cc2ccccc2)c(=O)c2sc3ccccc3c21	5.46%
CCCCN(CC)CCNC(=O)c1cc2cc3ccc(Cl)cc3nc2o1	1.9%
Cc1ccc2nc(Cl)c3cc(C(=O)N4CCC(=O)CC4)sc3c2c1	1.42%
CCCOC(=O)c1ccc(NC(=O)c2cccs2)cc1	-1.22%
CCn1c(C(=O)O)c(CNCCc2ccccc2Cl)c2ccc(C)cc21	-0.118%
CCCOc1ccc(C2C(C#N)=C(N)OC3=C2C(=O)CCC3)cc1OC (stereo not drawn)	1.08%
COc1ccc(S(=O)(=O)N2CCN(Cc3ccc(Br)cc3)CC2)cc1	-1.1%
CS(=O)(=O)C1=NSC2=NC(=O)/C(=C\c3ccc(Br)o3)C(=N)N21	3.48%
Cc1ccc(-c2noc(CCC(=O)N3CCN(c4ccccn4)CC3)n2)cc1	0.738%
O=C(O)c1ccc(/C=C2\NC(=O)N(Cc3ccc(Cl)cc3)C2=O)cc1	2.17%
O=S(=O)(c1ccc(-n2cnnn2)cc1)N1CCNCC1	1%
COc1cc(/C=C2\S/C(=N/c3ccc(C)c(C)c3)N(C)C2=O)ccc1OCC(=O)O	6.15%
CCCOc1ccccc1C1CC(=O)NC(C)=C1C(=O)OCC1CCCCC1 (stereo not drawn)	-1.62%
CCOc1ccccc1C(=O)Nc1ccc(C(=O)c2ccccc2)cc1	-8.36%
